Compound in the assay: N#CC[C@H](C1CCCC1)n1cc(-c2ncnc3[nH]ccc23)cn1 [Ruxolitinib]
Description: Viability of human cancer cell lines after 72 h of drug (GDSC screen). Here is the method: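 Human cancer cell lines in 384-well plates, medium with 10% serum, drug for 72 h over a 256-fold dose range (nine 2-fold or five 4-fold steps up to the top dose). Adherent lines were fixed and stained with the nucleic acid dye Syto60, suspension lines read with resazurin; signal relative to control wells, capped at 0 and 100%. One two-parameter sigmoid per drug and line, fitted in a mixed model over all curves with the slope shared within a line.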

The IC50 comes from the fitted curve, where viability falls to half of the control; fits outside the tested doses are given as limits. AUC sums up the same curve from the lowest dose to the 256-fold higher top dose; it is 1 without any effect and falls as sensitivity rises. Where only a bound is given, the exact number is not on record here.

Usually IC50 stands for the concentration needed to halve the response being measured. With “KP-N-YN (neuroblastoma, adherent, top dose 5.24 µM)”, the AUC was 0.987 and the IC50 is greater than 5.24 µM.

With “C-33-A (cervix, adherent, top dose 5.24 µM)”, the AUC is 0.983 and the IC50 was greater than 5.24 µM.

Turning to “NCI-H292 (lung adenocarcinoma, adherent, top dose 5.24 µM)”, the AUC stood at 0.932 and the IC50 is greater than 5.24 µM.

For “SISO (cervix, adherent, top dose 5.24 µM)”, the AUC is 0.987 and the IC50 was greater than 5.24 µM.

Regarding “DOK (head and neck, adherent, top dose 5.24 µM)”, the AUC was found to be 0.976 and the IC50 is greater than 5.24 µM.

Regarding “NCI-H2087 (lung adenocarcinoma, semi-adherent, top dose 5.24 µM)”, the AUC was determined as 0.887 and the IC50 is greater than 5.24 µM.

“WSU-NHL (lymphoid neoplasm, suspension, top dose 5.24 µM)”: the AUC amounted to 0.99 and the IC50 is greater than 5.24 µM.

For the cell line “SH-4 (melanoma, adherent, top dose 5.24 µM)”, the AUC was found to be 0.964 and the IC50 is greater than 5.24 µM.

In the case of “Hs766T (pancreas, adherent, top dose 5.24 µM)”, the AUC was 0.979 and the half-maximal inhibitory concentration (IC50) was greater than 5.24 µM.

Take “DMS-53 (small cell lung carcinoma, adherent, top dose 5.24 µM)”: the AUC is 0.987 and the IC50 was greater than 5.24 µM.

In the case of “PCI-30 (head and neck, adherent, top dose 5.24 µM)”, the AUC stood at 0.985 and the IC50 is greater than 5.24 µM.

For the cell line “OVCAR-3 (ovary, adherent, top dose 5.24 µM)”, the AUC was 0.983 and the IC50 is greater than 5.24 µM.

Take “LC4-1 (lymphoblastic leukaemia, suspension, top dose 5.24 µM)”: the AUC worked out at 0.982 and the half-maximal inhibitory concentration (IC50) is greater than 5.24 µM.

For the cell line “SCC-3 (B-cell lymphoma, suspension, top dose 5.24 µM)”, the AUC is 0.997 and the IC50 was greater than 5.24 µM.

With “DB (B-cell lymphoma, suspension, top dose 5.24 µM)”, the AUC amounted to 0.983 and the IC50 is greater than 5.24 µM.

Consider “JEG-3 (urogenital system, adherent, top dose 5.24 µM)”, for which the AUC was 0.99 and the IC50 is greater than 5.24 µM.

In the case of “NCI-H727 (lung carcinoid, adherent, top dose 5.24 µM)”, the AUC worked out at 0.976 and the IC50 was greater than 5.24 µM.

Consider “MOLT-13 (T-cell lymphoblastic leukaemia, suspension, top dose 5.24 µM)”, for which the AUC stood at 0.989 and the IC50 was greater than 5.24 µM.

Take “MFE-319 (endometrium, adherent, top dose 5.24 µM)”: the AUC came out at 0.988 and the IC50 was greater than 5.24 µM.

Turning to “NCI-H2291 (lung adenocarcinoma, adherent, top dose 5.24 µM)”, the AUC stood at 0.983 and the IC50 is greater than 5.24 µM.

On to “NB13 (neuroblastoma, adherent, top dose 5.24 µM)”, for which the AUC is 0.985 and the IC50 is greater than 5.24 µM.

Take “P32-ISH (Burkitt lymphoma, suspension, top dose 5.24 µM)”: the AUC is 0.99 and the IC50 is greater than 5.24 µM.

On to “Daudi (Burkitt lymphoma, suspension, top dose 5.24 µM)”, for which the AUC is 0.988 and the IC50 is greater than 5.24 µM.

Take “LS-180 (large intestine, adherent, top dose 5.24 µM)”: the AUC was found to be 0.985 and the 50% inhibitory concentration (IC50) is greater than 5.24 µM.

On to “LP-1 (myeloma, suspension, top dose 5.24 µM)”, for which the AUC is 0.988 and the IC50 was greater than 5.24 µM.

Regarding “KYSE-70 (oesophagus, adherent, top dose 5.24 µM)”, the AUC was found to be 0.984 and the IC50 is greater than 5.24 µM.

“DAN-G (pancreas, adherent, top dose 5.24 µM)”: the AUC turned out to be 0.991 and the half-inhibitory concentration (IC50) was greater than 5.24 µM.

Take “ES5 (Ewing sarcoma, adherent, top dose 5.24 µM)”: the AUC was 0.963 and the IC50 is greater than 5.24 µM.

As for “RPMI-8866 (chronic myeloid leukaemia, suspension, top dose 5.24 µM)”, the AUC came to 0.987 and the IC50 was greater than 5.24 µM.

Consider “H2722 (mesothelioma, adherent, top dose 5.24 µM)”, for which the AUC amounted to 0.975 and the IC50 is greater than 5.24 µM.

Turning to “HCC1500 (breast, adherent, top dose 1.024 µM)”, the AUC came out at 0.967 and the IC50 is greater than 1.02 µM.

For “LU-135 (small cell lung carcinoma, suspension, top dose 5.24 µM)”, the AUC came to 0.979 and the IC50 is greater than 5.24 µM.

For “ES6 (Ewing sarcoma, adherent, top dose 5.24 µM)”, the AUC came to 0.924 and the IC50 was greater than 5.24 µM.

In the case of “RMG-I (ovary, adherent, top dose 5.24 µM)”, the AUC is 0.974 and the IC50 was greater than 5.24 µM.

Take “ECC10 (stomach, suspension, top dose 5.24 µM)”: the AUC was 0.979 and the IC50 was greater than 5.24 µM.

On to “GR-ST (lymphoblastic leukaemia, suspension, top dose 5.24 µM)”, for which the AUC was 0.975 and the IC50 was greater than 5.24 µM.

“MC-CAR (haematopoietic neoplasm, suspension, top dose 5.24 µM)”: the AUC came out at 0.984 and the IC50 was greater than 5.24 µM.

In the case of “JVM-3 (lymphoid neoplasm, suspension, top dose 5.24 µM)”, the AUC worked out at 0.987 and the IC50 was greater than 5.24 µM.

As for “D-263MG (glioma, adherent, top dose 5.24 µM)”, the AUC was found to be 0.983 and the IC50 is greater than 5.24 µM.

For the cell line “CAL-54 (kidney, adherent, top dose 5.24 µM)”, the AUC came to 0.888 and the IC50 was greater than 5.24 µM.

Regarding “NB-4 (acute myeloid leukaemia, suspension, top dose 5.24 µM)”, the AUC was 0.935 and the IC50 was greater than 5.24 µM.

With “U-698-M (B-cell leukaemia, suspension, top dose 5.24 µM)”, the AUC came out at 0.987 and the IC50 was greater than 5.24 µM.

Take “VM-CUB-1 (bladder, adherent, top dose 5.24 µM)”: the AUC was 0.989 and the IC50 was greater than 5.24 µM.

“SNU-387 (liver, adherent, top dose 5.24 µM)”: the AUC amounted to 0.974 and the 50% inhibitory concentration (IC50) was greater than 5.24 µM.

As for “MOG-G-CCM (glioma, adherent, top dose 5.24 µM)”, the AUC turned out to be 0.932 and the IC50 is greater than 5.24 µM.

As for “SU-DHL-6 (B-cell lymphoma, suspension, top dose 5.24 µM)”, the AUC was found to be 0.982 and the IC50 was greater than 5.24 µM.

As for “KYSE-270 (oesophagus, adherent, top dose 5.24 µM)”, the AUC amounted to 0.989 and the IC50 was greater than 5.24 µM.

For “ESS-1 (endometrium, adherent, top dose 5.24 µM)”, the AUC turned out to be 0.985 and the half-inhibitory concentration (IC50) is greater than 5.24 µM.

“5637 (bladder, adherent, top dose 5.24 µM)”: the AUC was 0.989 and the half-inhibitory concentration (IC50) is greater than 5.24 µM.

In the case of “SW900 (lung squamous cell carcinoma, adherent, top dose 5.24 µM)”, the AUC came to 0.984 and the IC50 is greater than 5.24 µM.

In the case of “BHY (head and neck, adherent, top dose 5.24 µM)”, the AUC worked out at 0.986 and the half-maximal inhibitory concentration (IC50) is greater than 5.24 µM.

“TOV-112D (ovary, adherent, top dose 5.24 µM)”: the AUC was determined as 0.969 and the IC50 was greater than 5.24 µM.

Turning to “SW1463 (large intestine, adherent, top dose 5.24 µM)”, the AUC was determined as 0.978 and the IC50 is greater than 5.24 µM.

On to “H-EMC-SS (chondrosarcoma, adherent, top dose 5.24 µM)”, for which the AUC turned out to be 0.966 and the IC50 was greater than 5.24 µM.

As to “WIL2-NS (lymphoid neoplasm, suspension, top dose 5.24 µM)”, the AUC came out at 0.926 and the IC50 was greater than 5.24 µM.

Regarding “TK (B-cell lymphoma, suspension, top dose 5.24 µM)”, the AUC worked out at 0.988 and the IC50 was greater than 5.24 µM.

Turning to “SW948 (large intestine, adherent, top dose 5.24 µM)”, the AUC was determined as 0.981 and the IC50 was greater than 5.24 µM.

On to “KYSE-510 (oesophagus, adherent, top dose 5.24 µM)”, for which the AUC was determined as 0.992 and the IC50 was greater than 5.24 µM.

With “OE21 (oesophagus, adherent, top dose 5.24 µM)”, the AUC turned out to be 0.977 and the IC50 was greater than 5.24 µM.

As to “NCI-H2141 (small cell lung carcinoma, suspension, top dose 5.24 µM)”, the AUC amounted to 0.952 and the IC50 is greater than 5.24 µM.

For the cell line “Caov-3 (ovary, adherent, top dose 5.24 µM)”, the AUC is 0.989 and the IC50 was greater than 5.24 µM.

Turning to “BICR78 (head and neck, adherent, top dose 5.24 µM)”, the AUC worked out at 0.981 and the IC50 was greater than 5.24 µM.

Take “SNU-C2B (large intestine, adherent, top dose 5.24 µM)”: the AUC was 0.976 and the IC50 was greater than 5.24 µM.

Regarding “EB2 (Burkitt lymphoma, suspension, top dose 5.24 µM)”, the AUC came out at 0.963 and the 50% inhibitory concentration (IC50) is greater than 5.24 µM.

Take “NCI-H2452 (mesothelioma, adherent, top dose 5.24 µM)”: the AUC stood at 0.984 and the IC50 was greater than 5.24 µM.

Source of the values: the supplement of paper PMC4967469.
